Data from the supplement of paper PMC3334620.
Over roughly 33,000 sequences, “E-score (-0.5 to 0.5)” has its median near -0.04; the highest 2% begin near 0.36. The list shows a part of the results.

What follows are sequences tested against T1, Hmlalpha2 (UniProt P0CY09) (assay: PBM E-score (8-mer binding enrichment) (E-score (-0.5 to 0.5)); higher = stronger / more preferred TF binding; most listed sequences are background and not binding sites). Details: protein concentration: 200 nM; construct: GST-full length.
T1 sequence: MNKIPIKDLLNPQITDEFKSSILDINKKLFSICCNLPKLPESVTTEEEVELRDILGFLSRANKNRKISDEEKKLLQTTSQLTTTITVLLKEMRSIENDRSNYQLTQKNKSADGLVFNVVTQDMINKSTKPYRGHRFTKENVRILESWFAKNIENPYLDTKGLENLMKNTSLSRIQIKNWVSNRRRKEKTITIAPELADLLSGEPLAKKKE
Description: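 Universal 'all 10-mer' protein binding microarrays (Agilent AMADID 015681) probed with GST-tagged S. cerevisiae TFs (full-length or DBD) made by in vitro transcription/translation (PURExpress), about 100-200 nM. Bound TF was detected with fluorescent anti-GST. Each ungapped 8-mer (which stands for itself and its reverse complement) is scored by the PBM enrichment score (E-score), a modified Wilcoxon-Mann-Whitney statistic from -0.5 to +0.5, computed with the Universal PBM Analysis Suite. Scale: above 0.35 generally sequence-specific binding.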

Compared with GAAGGCCA, AATAACAA is higher in “PBM E-score” value: -0.38 for the first, 0.267 for the second.

Compared with CACTACTG, CGATAAGA is higher in “PBM E-score” value: -0.177 for the first, 0.00859 for the second.

Going from ATAATTGC to CAACGTAA, the “PBM E-score” value rises from 0.121 to 0.29.

Going from CGTCTGAG to GGTGGCAA, the “PBM E-score” value falls from -0.0744 to -0.19.

Compared with AGAGTTGG, CAAGGTAC is higher in “PBM E-score” value: -0.131 for the first, 0.104 for the second.

First: CATGTCTC
Second: CGTTCATC
The “PBM E-score” value of the first is higher: 0.117 for the first, 0.0714 for the second.

First: ATACGTAC
Second: AAGAAGTG
The “PBM E-score” value of the first is higher: 0.242 for the first, 0.0961 for the second.

Going from ATTACAGA to CCAAATTC, the “PBM E-score” value falls from 0.333 to -0.06.

Going from AGGGGACA to CCCTGGAG, the “PBM E-score” value falls from -0.0998 to -0.324.

First: ATTGTAGG
Second: CTATATTA
The “PBM E-score” value of the first is lower: 0.23 for the first, 0.25 for the second.

First: CCCATAGC
Second: ATGACCCA
The “PBM E-score” value of the first is lower: -0.283 for the first, 0.0186 for the second.

Compared with CCTACCTC, CCCCCGTA is higher in “PBM E-score” value: -0.361 for the first, -0.247 for the second.

Compared with GTCGGGAA, CGGGCAAG is lower in “PBM E-score” value: 0.00521 for the first, -0.192 for the second.

First: TACTTCAA
Second: CTACTGAA
The “PBM E-score” value of the first is higher: 0.111 for the first, -0.00131 for the second.

Going from CCATATTA to TCCATGGA, the “PBM E-score” value rises from 0.063 to 0.076.

Compared with GAGATAGA, GGCCTCTA is lower in “PBM E-score” value: -0.0968 for the first, -0.171 for the second.

First: TAGTGTAA
Second: ATCAAGTG
The “PBM E-score” value of the first is higher: 0.323 for the first, -0.0416 for the second.

First: AAATGCAC
Second: TATGCCCA
The “PBM E-score” value of the first is higher: -0.0775 for the first, -0.227 for the second.

Going from CCCATGTA to CGCGAGAC, the “PBM E-score” value falls from 0.447 to 0.113.

First: AGGCATGC
Second: AAACCCGA
The “PBM E-score” value of the first is higher: 0.0654 for the first, 0.0002 for the second.

First: ACCTGCTG
Second: AAGGAAGA
The “PBM E-score” value of the first is higher: 0.0134 for the first, -0.203 for the second.

First: AGGAGTTC
Second: AACTTCAG
The “PBM E-score” value of the first is higher: -0.145 for the first, -0.148 for the second.

First: GGTTGAAA
Second: AAGTGTAC
The “PBM E-score” value of the first is lower: -0.0197 for the first, 0.0982 for the second.

Going from CGCAAACC to GTGATTGA, the “PBM E-score” value rises from 0.0302 to 0.229.

First: CCTCTAAG
Second: CTGGCCTC
The “PBM E-score” value of the first is higher: -0.255 for the first, -0.334 for the second.

Going from GGGCGTAA to ACTCGACT, the “PBM E-score” value falls from 0.0836 to 0.0143.

Going from AGGCAGAC to GACTTCTA, the “PBM E-score” value rises from -0.231 to -0.0698.

First: ACGGTGGA
Second: GAGCCCAC
The “PBM E-score” value of the first is higher: -0.0685 for the first, -0.304 for the second.

Compared with CCTGAACA, AGTGAAAT is lower in “PBM E-score” value: 0.152 for the first, 0.0119 for the second.

Going from CCTAAGTC to CGGGGGAC, the “PBM E-score” value rises from -0.403 to -0.388.

Compared with AATCTCCA, CAAAGTAG is lower in “PBM E-score” value: 0.042 for the first, -0.0513 for the second.

First: ACTATAGG
Second: AGCTTATA
The “PBM E-score” value of the first is lower: -0.131 for the first, 0.0751 for the second.

Compared with ACTTCACC, CCCTGAGC is lower in “PBM E-score” value: -0.0828 for the first, -0.282 for the second.

Compared with ACCATCAG, CATTGGAA is higher in “PBM E-score” value: -0.154 for the first, 0.0982 for the second.

First: TCGCAAAA
Second: GGCGATAC
The “PBM E-score” value of the first is higher: 0.0537 for the first, -0.127 for the second.

Going from TCGCTCAA to TCGCGACA, the “PBM E-score” value falls from -0.0107 to -0.138.

Compared with CTTACCGA, CCAGGGGA is lower in “PBM E-score” value: -0.129 for the first, -0.291 for the second.

Compared with AAGCATGA, AATGATGA is lower in “PBM E-score” value: 0.0153 for the first, 0.0124 for the second.

Compared with CTGGGATA, AGAATTTA is higher in “PBM E-score” value: -0.181 for the first, 0.203 for the second.

Going from TCGTTTAA to ATATATAG, the “PBM E-score” value falls from 0.293 to 0.126.

First: AGCCACCA
Second: ACGTATGC
The “PBM E-score” value of the first is lower: -0.167 for the first, 0.0963 for the second.

First: TCTAATAA
Second: ATTGAGGA
The “PBM E-score” value of the first is higher: 0.182 for the first, -0.0755 for the second.

First: AAGGGTGG
Second: ACACAGTG
The “PBM E-score” value of the first is lower: -0.3 for the first, 0.315 for the second.

Going from TAAGAACA to GTTCTTTA, the “PBM E-score” value falls from 0.355 to 0.197.

Going from GATCAACC to ATTCATGC, the “PBM E-score” value rises from -0.154 to -0.00549.

Compared with GTTCGCTA, AGCAACGA is lower in “PBM E-score” value: 0.0191 for the first, -0.017 for the second.

Going from ACCCTGAA to GATACGCA, the “PBM E-score” value rises from -0.0447 to 0.144.

Going from GAGCAGGA to GGCAAGAA, the “PBM E-score” value falls from 0.0487 to 0.0427.

First: GGGGCACA
Second: ATAGGGAC
The “PBM E-score” value of the first is higher: -0.167 for the first, -0.235 for the second.

Going from GCGTTGCA to AAAGCCTG, the “PBM E-score” value falls from 0.0313 to -0.167.

Going from TAGGCCTA to GCCTCGAA, the “PBM E-score” value falls from 0.0969 to -0.109.

Compared with ACTGGAGG, GCCGCGCC is higher in “PBM E-score” value: -0.298 for the first, -0.129 for the second.

First: GCTACCAA
Second: AGATAGTG
The “PBM E-score” value of the first is lower: 0.00589 for the first, 0.0358 for the second.

Compared with CTGAATTC, CCTAGAAG is lower in “PBM E-score” value: 0.0173 for the first, -0.255 for the second.

First: ACTCTGGA
Second: AGGCTTCA
The “PBM E-score” value of the first is higher: -0.0614 for the first, -0.223 for the second.

Compared with ATGTTCCA, GCCAAGCC is lower in “PBM E-score” value: 0.12 for the first, -0.309 for the second.

Going from CCACCACG to AACCTCAC, the “PBM E-score” value rises from -0.118 to -0.102.

Going from CCAGTCTC to ACGGATTA, the “PBM E-score” value rises from -0.203 to 0.121.

Going from AATGTGAA to TCGTACCA, the “PBM E-score” value falls from 0.235 to -0.156.

Going from ACTGCGCT to CTAAACCA, the “PBM E-score” value rises from -0.0871 to -0.0151.

Compared with ATATCATC, AGCTAACT is lower in “PBM E-score” value: 0.0385 for the first, -0.049 for the second.

Going from ACAGTATC to CAAGATTC, the “PBM E-score” value falls from 0.152 to -0.0343.

Compared with ATATATGC, AGATAGAC is higher in “PBM E-score” value: -0.0235 for the first, 0.0844 for the second.

Going from GAATCAGA to CTGCTTGA, the “PBM E-score” value rises from -0.0847 to -0.0539.

Compared with ACGCTTGG, CGCGCATC is lower in “PBM E-score” value: 0.0568 for the first, -0.0161 for the second.

First: CAAGGGCG
Second: ATCTGGGA
The “PBM E-score” value of the first is higher: -0.0004 for the first, -0.212 for the second.

Going from ACGCAGAT to CTCCTTCC, the “PBM E-score” value falls from 0.162 to -0.0659.

First: ATGAATAA
Second: GCTATGGA
The “PBM E-score” value of the first is higher: 0.198 for the first, -0.249 for the second.

Going from AGGGAACT to GACGGACC, the “PBM E-score” value falls from -0.105 to -0.175.

Compared with GGGTGACA, TCCAGCAA is lower in “PBM E-score” value: -0.00972 for the first, -0.0655 for the second.

Going from AGTCGGAA to AGCAGAAT, the “PBM E-score” value rises from -0.17 to 0.0669.

First: CGGTTTAG
Second: ACAAAGCC
The “PBM E-score” value of the first is lower: -0.141 for the first, 0.146 for the second.

First: AATGATTG
Second: AGGTTCGA
The “PBM E-score” value of the first is lower: 0.0613 for the first, 0.111 for the second.

First: AGGATCCG
Second: ATGTCAAC
The “PBM E-score” value of the first is lower: -0.222 for the first, 0.374 for the second.

Compared with TAAACACA, GCGTCGGA is lower in “PBM E-score” value: 0.379 for the first, 0.0914 for the second.

First: CCTATTCC
Second: GCTCTAAA
The “PBM E-score” value of the first is lower: -0.123 for the first, -0.112 for the second.

Compared with ATAAAAGA, AGATCGGG is lower in “PBM E-score” value: -0.0789 for the first, -0.317 for the second.

Going from CCGTCCAC to AGGTTATC, the “PBM E-score” value rises from -0.158 to -0.119.

Going from TCCTGAAA to ACTGTCGG, the “PBM E-score” value falls from -0.16 to -0.208.

Going from AATGGTGG to AATGAAAA, the “PBM E-score” value rises from -0.232 to 0.071.

Compared with ATCACGTC, AGACTGTA is lower in “PBM E-score” value: 0.108 for the first, -0.0771 for the second.

First: GTGGCGCA
Second: CTACGATA
The “PBM E-score” value of the first is lower: -0.0228 for the first, 0.0842 for the second.

Going from AAAAATGA to CTGTGCAC, the “PBM E-score” value falls from 0.082 to 0.0227.

First: CAACAAGG
Second: AATGGGCA
The “PBM E-score” value of the first is higher: 0.359 for the first, -0.0715 for the second.

First: GCCACAGA
Second: CAACTATC
The “PBM E-score” value of the first is higher: -0.0817 for the first, -0.214 for the second.

Compared with CGAAACCG, CTCCATCA is lower in “PBM E-score” value: -0.097 for the first, -0.11 for the second.
